Results on five molecules are retold here after ChEMBL document CHEMBL4834469, “Balancing Properties with Carboxylates: A Lead Optimization Campaign for Selective and Orally Active CDK9 Inhibitors” (ACS Med Chem Lett, 2021).

The bioavailability is dose-corrected exposure relative to a reference, in per cent. High values mean good availability, low ones poor availability. Usually Vd stands for a proportionality between amount in the body and measured concentration, not a real space. A lower Vd goes with confinement near the circulation. One may read the fraction unbound as free concentration divided by total concentration. A lower fraction unbound goes with extensive binding. For orientation: half-life means the time needed for the level to fall by half in the phase considered. Lower therefore signals fast loss. The term AUC denotes concentration integrated over time. Read a low AUC as low exposure. The term IC50 denotes the point on the concentration scale where inhibition reaches its midpoint. High values mean lower potency, low ones higher potency.

A short description of data set [1]: in vivo. The note with it: rat, po, 1 mg/kg.
Data set [2] can be described thus: in vivo. The note with it: Sprague-Dawley, rat, iv, 10 mg/kg.
The nature of data set [3]: in vivo. The following applies: rat, iv, 1 mg/kg.
A short description of data set [4]: in vitro. The note with it: rat, plasma.
Data set [5] in a line: in vitro. The following applies: human, plasma.
Data set [6] in a line: in vivo. The following applies: rat, iv, 1 mg/kg. This is another data set of the same source.
Data set [7] can be described thus: in vivo. The following applies: rat, po, 1 mg/kg. This is another data set of the same source.
For the next data set, the system named is NCI-H929. Briefly: cells. The note with it: Homo sapiens, NCI-H929, 24 h.

Turning to `CNC(=O)N1CC=C(c2cc3c(-c4cc(F)ccc4OC)ccnc3[nH]2)CC1`, the bioavailability in “in vivo [1]” is 85%. Moreover, the concentration at 0.5 h in the data set “in vivo [2]” was found to be 3300 ng/mL. The Vd in the data set “in vivo [3]” is 5.4 L/kg. The fraction unbound in the data set “in vitro [4]” was 0.01; in the data set “in vitro [5]”, 0.008. The molecule also showed a half-life in the data set “in vivo [6]” of 60 min.
Regarding `COc1ccc(F)cc1-c1ccnc2[nH]c(C3=CCN(S(C)(=O)=O)CC3)cc12`, the bioavailability in the data set “in vivo [1]” was 28%. The concentration at 0.5 h in the data set “in vivo [2]” amounted to 2500 ng/mL. Further, the Vd in “in vivo [3]” worked out at 2.9 L/kg. Also, the fraction unbound in the data set “in vitro [4]” was 0.06. The AUC in “in vivo [7]” stood at 99 ng·h/mL. Further, the half-life in “in vivo [6]” was 58.2 min.
Consider `COc1ccc(F)cc1-c1ccnc2[nH]c(C3=CCN(C(=O)CO)CC3)cc12`, for which the IC50 in the data set with NCI-H929 was 130 nM. Further, the bioavailability in the data set “in vivo [1]” came to 20%. The concentration at 0.5 h in “in vivo [2]” was 1900 ng/mL. The Vd in “in vivo [3]” stood at 3.1 L/kg. The fraction unbound in the data set “in vitro [4]” was 0.046; in “in vitro [5]”, 0.027. Further, the AUC in “in vivo [7]” was determined as 56 ng·h/mL. The molecule also had a half-life in the data set “in vivo [6]” of 43.8 min.
The molecule `COc1ccc(F)cc1-c1ccnc2[nH]c(C3=CCNCC3)cc12` displayed a concentration at 0.5 h in “in vivo [2]” of 600 ng/mL.
In turn, `COc1ccc(F)cc1-c1ccnc2[nH]c(C3=CCN(CC(=O)O)CC3)cc12` displayed an IC50 in the data set with NCI-H929 of 240 nM. This molecule returned a bioavailability in the data set “in vivo [1]” of 0%. The same molecule registered a concentration at 0.5 h in “in vivo [2]” of 6100 ng/mL. In addition, the Vd in “in vivo [3]” was determined as 1 L/kg. Also, the fraction unbound was 0.106 in “in vitro [4]” and 0.034 in “in vitro [5]”. Also, the half-life in “in vivo [6]” was 34.8 min.
